PubChem BioAssay AID1159614 (National Center for Advancing Translational Sciences (NCATS), 2016)
The whole screen tested about 45,000 compounds, of which about 65 (0.1%) were called active. Calls come from the whole dose curve; as a rule, active = well fitted activation curve with a large enough effect; inconclusive = small, poorly fitted or top-dose-only effect; inactive = no such curve, though single readings can be large or run the other way. The list shows a part of the results.

What follows are compounds tested against Galactocerebrosidase (Homo sapiens) (UniProt P54803) (assay: A Novel Cell-Based Assay to Identify Small Molecules for B -Galactocerebrosidase). Details: 145M-Twi-hGALC-G270D cells (Twitcher mouse brain line with human GALC G270D), HMU-beta-Gal fluorescence, 48 h; series mostly up to 57.5 µM; activation: at the top concentration.
UniProt P54803, sequence (P54803 whole entry, looked up): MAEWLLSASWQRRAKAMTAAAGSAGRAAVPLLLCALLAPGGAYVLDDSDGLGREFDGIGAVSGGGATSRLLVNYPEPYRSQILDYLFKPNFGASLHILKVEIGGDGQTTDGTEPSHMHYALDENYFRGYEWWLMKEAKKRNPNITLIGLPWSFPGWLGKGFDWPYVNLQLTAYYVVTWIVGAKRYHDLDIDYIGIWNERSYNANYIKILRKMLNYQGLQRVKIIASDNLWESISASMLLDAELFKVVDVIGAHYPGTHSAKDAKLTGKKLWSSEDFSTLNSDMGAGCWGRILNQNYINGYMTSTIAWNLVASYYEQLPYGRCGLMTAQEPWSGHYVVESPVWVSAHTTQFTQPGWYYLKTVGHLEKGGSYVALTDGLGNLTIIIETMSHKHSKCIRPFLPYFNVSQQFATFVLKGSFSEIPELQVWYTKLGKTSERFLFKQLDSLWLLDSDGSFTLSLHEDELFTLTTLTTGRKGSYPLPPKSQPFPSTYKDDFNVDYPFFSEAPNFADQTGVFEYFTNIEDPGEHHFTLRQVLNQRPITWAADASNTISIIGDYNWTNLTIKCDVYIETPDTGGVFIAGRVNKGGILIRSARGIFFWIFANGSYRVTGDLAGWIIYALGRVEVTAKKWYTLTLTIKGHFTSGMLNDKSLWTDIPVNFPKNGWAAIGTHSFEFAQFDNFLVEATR
Excerpt: Lysosomal storage diseases (LSDs) are caused by genetic mutations in genes encoding proteins important for normal lysosomal function. Globoid cell leukodystrophy (GLD), mostly known as Krabbe disease, is a prototype of the neurological LSDs caused by deficiency of beta-galactocerebrosidase (GALC). In brain specimens of GLD patients, psychosine levels are substantially elevated. At elevated concentrations, psychosine becomes cytotoxic to neuronal cells, particularly to oligodendrocytes (OLG), neural cells responsible for myelin formation. Therefore, the biochemical disturbances in GLD are manifested by different degrees of brain demyelination resulting in a broad spectrum of neurological manifestations. Most of the FDA-approved therapies are based on enzyme replacement therapeutic (ERT) agents, which treat non-neurological symptoms of Gaucher disease, Fabry disease, few mucopolysaccharidoses and Pompe disease. Unfortunately, in GLD, a primarily neurological LSD, ERT agents, as large molecular weight molecules unable to cross the blood-brain barrier, which makes this an inefficacious therapeutic approach. In GLD, increasing the residual GALC activity just above the critical threshold (~10% of wild type enzymatic activity), the cytotoxic levels of psychosine will be reduced, avoiding the OLGs apoptosis and the subsequent demyelination process. This will translate in disease stabilization and amelioration of GLD patient symptoms.
A cell-based assay in 1,536-well plate format was developed to implement a quantitative high-throughput screening (qHTS) assay using GLD-disease relevant cells to identify small molecules that produce enhancements of the residual enzymatic activity levels of mutants GALC found and prevalent in GLD patients. Compounds that are active may therefore have some therapeutic application for GLD. After the treatment of live cells for a determined period, using a fluorescent GALC specific substrate, the mutant residual GALC activity is measured. This cell-based qTHS assay was used to screen part of the MLPCN library for small molecule able to increase the mutant GALC enzymatic activity. In this assay, increased fluorescent signal corresponds to enhanced levels of mutant GALC residual enzymatic activity. Activation is the desired outcome for this assay.
NIH Chemical Genomics Center [NCGC]
NIH Molecular Libraries Probe Centers Network [MLPCN]
Assay Submitter (PI): Gustavo Maegawa MD,PhD, University of Florida, Gainesville, FL
2)#Two cell lines were established for the assay: 145M-Twi-hGALC-G270D (brain-derived Twitcher cell line stably expressing human GALC-G270D) and 145M-Twi-hGALC-WT (same 145M-Twi stably expressing human GALC wild type). The Twitcher is the murine C57B/6 model for GLD with naturally occurring homozygous nonsense GALC mutation. The 145M-Twi cell line was established at Maegawa lab (Ribbens J et al 2014).
a.#Media: DMEM/F12 (1:1) with 10% fetal bovine-serum (FBS) with penicillin/streptomycin (PS-1X - 100 I.U./mL of penicillin+100 ug/mL of streptomycin).
b.#The 6-Hexadecanoylamino-4-methylumbelliferyl-b-D-galactoside (HMU-B-gal) substrate was prepared as per Wiederschain et al 1992. Using 20-mL borosilicate tubes, 2.20 mg of HMU-b-Gal was added in each tube to prepare substrate-film with a final air-nitrogen stream evaporation to remove all diluent solvents.
c.#The HMUb-Gal substrate buffer consists of 0.2 M Na2HPO4 (sodium phosphate dibasic)/ 0.1 M Citric Acid with the pH adjusted to 5.2 using HCl. Sodium Azide at 0.02% and Sodium Taurocholate (NaTC) at 1 mg/mL were added to this substrate buffer.
d.#The HMU-b-Gal stopping buffer consist of 0.5 M NaHCO3 (sodium bicarbonate) /0.5 M Na2CO3 (sodium carbonate). […] Triton X-100 at 0.25% was added.
4)#Preparation of HMU-b-Gal substrate tubes
Adding 18.6 mL of the HMUb-Gal substrate buffer to each 20-mL tube (2.20 mg of HMU-b-Gal) will reach a concentration of 0.2 mM. Vortex well the tube until the solution is fully homogenized (clear cloudy solution). […]
Note: 0% is about no effect; nearly all actives have a fitted effect of over 65% in size.

activation, inactive:
N#Cc1c(Nc2cccc(F)c2)sc(C(=O)c2ccc(Cl)cc2)c1N -11.9%
CCN(c1ccccc1)S(=O)(=O)c1ccc2[nH]cc(C(=O)NCc3ccc(C)cc3)c(=O)c2c1 -0.701%
Clc1ccc(CNc2cc(-c3ccccc3)nc3nncn23)cc1 -23.3%
Cc1ccc(C)c(CN2C(=O)CSc3ccc(C(=O)NCCc4ccc(Cl)cc4)cc32)c1 -6.83%
CCCNC(=O)Cn1nc(-c2ccc(C)c(C)c2)c2cnc3ccc(F)cc3c21 -19.2%
O=C(Nc1cccc(C(F)(F)F)c1)Nc1nnc(N2CCCCC2)s1 0.8%
COc1ccccc1CNC(=O)CN1C(=O)CCn2nc(-c3ccccc3)cc21 -17.5%
COc1ccc(-c2nc3sc(CCNS(=O)(=O)c4ccc(F)c(C)c4)c(C)n3n2)cc1 -16.6%
Cc1ccc(OCC(=O)Nc2ccc3nc(Nc4cccc(Cl)c4)cc(C)c3c2)cc1 -10.6%
Cc1cc(C)nc(NS(=O)(=O)c2ccc(N)cc2)n1 -12.9%
COc1ccc(N2CC(NC(=O)c3ccc(OC(C)C)cc3)CC2=O)cc1 (centres undefined) -18.1%
CCc1ccccc1NC(=O)Nc1cc(C(=O)NCc2ccc(OC)cc2)ccc1N1CCCC1 -12.9%
Cc1noc(C)c1S(=O)(=O)N1CCCC(C(=O)Nc2ccc(C(C)C)cc2)C1 (centres undefined) -5.32%
O=C(c1ccccc1)n1nc(-c2ccco2)nc1NCc1ccccc1Cl -21.5%
COc1cc(NS(=O)(=O)c2ccc(N)cc2)ncn1 -13.3%
COc1ccc(N(C(=O)COc2ccccc2OC)S(=O)(=O)c2ccc(Cl)cc2)cc1 -27.3%
CCOCCCNC(=O)c1cc2c(=O)[nH]c3ccccc3c2n1C -10.5%
CC1(C)O[C@@H]2C[C@H]3[C@@H]4C[C@H](F)C5=CC(=O)C=C[C@]5(C)[C@@]4(F)[C@@H](O)C[C@]3(C)[C@]2(C(=O)CO)O1 -13.9%
CCOc1ccc(CNC(=O)C2CCN(c3nn4c(=O)cc(C)nc4s3)CC2)cc1 7.74%
CCOc1ccc(CCNC(=O)C2CCC(CNS(=O)(=O)c3ccc(Cl)cc3)CC2)cc1OCC (centres undefined) -5.02%
COc1cccc(-n2cc(C(=O)Nc3cc(C)c(Cl)cc3OC)c3ccccc3c2=O)c1 -0.458%
Cc1ccc(C)c(NC(=O)c2nnn(CC(=O)Nc3cccc(C)c3C)c2N)c1 -1.71%
O=c1c2c3c(sc2n(Cc2cc(=O)n4ccccc4n2)c(=O)n1-c1ccccc1)CCC3 -18.6%
O=c1cc(CN2CCN(S(=O)(=O)c3ccccc3)CC2)nc2sc(-c3ccccc3Cl)nn12 -8.18%
CCc1ccc(C(=O)c2cn(CC(=O)Nc3ccc4c(c3)OCCO4)c3ccc(C)cc3c2=O)cc1 -2.19%
O=C(CCSCc1ccccc1Cl)N1CCN(c2ccc(F)cc2)CC1 0.132%
CC(Oc1ccccc1)C(=O)N1CCN(Cc2cc(=O)n3nc(-c4ccccc4Cl)sc3n2)CC1 (centres undefined) -6.16%
COCc1cc(C)nc2sc3c(c12)NC(c1ccccc1C(=O)O)N(c1ccc(OC)cc1)C3=O (centres undefined) -11%
CC(=O)c1ccc(NC(=O)COc2ccccc2-c2nc(-c3ccccc3)no2)cc1 -1.06%
O=C(CS(=O)(=O)c1nc(-c2ccc(Cl)cc2)cn1-c1ccccc1)Nc1ccc(F)cc1F -39.8%
Cc1ccc(NC(=O)C(Cc2ccccc2)NS(=O)(=O)c2cccs2)cc1Cl (centres undefined) -7.4%
Cc1ccc(-c2noc(CSc3nnc(C)n3-c3ccc(C)cc3)n2)cc1 -14.3%
COc1ccccc1CNC(=O)CN1C(=O)c2cccnc2Oc2ccccc21 1.83%
COc1ccc(-c2cc(C(C)=O)c(C)n2CCC(=O)NC2CCCCC2)cc1 -8.46%
Cc1ccc(-n2c(SCCC(C)C)nc3sc4c(c3c2=O)CC(C)(C)OC4)cc1 -17.5%
CCOc1ccc(CNC(=O)C2CCN(C(=O)c3sccc3-n3cccc3)CC2)cc1 -17.3%
COc1ccc(NC(=O)CCCc2nnc3n(CCC(C)C)c(=O)c4sccc4n23)cc1Cl -5.02%
COc1ccc(OCCSc2nc3ccccc3n2CC(=O)N2CCOCC2)cc1 -9.68%
COc1ccc(/C=C/c2onc(C)c2S(=O)(=O)N2CCC(C(=O)N3CCCCC3)CC2)cc1 -8.44%
COc1cc(CNc2ccc3[nH]c(=O)[nH]c3c2)cc(Br)c1OCc1ccc(F)cc1 -6.29%
CN(C)c1cccc(C(=O)N2CCC(c3ccncc3)CC2)c1 0.415%
COc1ccccc1CNC(=O)c1cc2cc(C)ccc2n1C -10.9%
COCCNc1ncnc2onc(-c3ccc(F)cc3)c12 -28.3%
CC(C)Oc1ccc(C(=O)N2CC(=O)Nc3ccc(F)cc3C2c2ccc(F)cc2)cc1 (centres undefined) -6.18%
CCOc1ccc(CNC(=O)CN2C(=O)C3CCCCN3c3ccc(C(=O)N4CCCC4)cc32)cc1 (centres undefined) -12.6%
CCc1cccc(C)c1NC(=O)C(CC)n1ncn2c(cc3cc(C)ccc32)c1=O (centres undefined) -15.7%
Cc1ccc(C)c(NC(=O)Cn2c(=O)n(Cc3ccc4c(c3)OCO4)c(=O)c3ccc(C(=O)NC4CCCCC4)cc32)c1 -7.83%
Cc1ccc(S(=O)(=O)c2nc(S(=O)(=O)c3ccc(C)cc3)c(NC(C)C)s2)cc1 -11.2%
CCOc1ccc(CNC(=O)c2cnc3sc(N4CCCCCC4)nn3c2=O)cc1OC -8.18%
O=C(CSc1nc(-c2ccccc2)nc2c1CCCC2)c1ccc(Cl)cc1 -12.4%
O=C(O)CCc1ccc(-c2cccs2)n1CC(=O)Nc1ccccc1C(F)(F)F -17.7%
COc1ccc(Cn2ccc3nc(C)c(C(=O)N4CCN(c5cc(C)ccc5C)CC4)cc3c2=O)cc1 -8.7%
CCCNC(=O)C1CCC(Cn2c(=O)c3sccc3n(CC(=O)Nc3ccccc3C)c2=O)CC1 (centres undefined) -9.8%
Cc1cccc(NC(=O)C2CCN(S(=O)(=O)c3ccc4c(c3)CCCC(=O)N4)CC2)c1 -12.1%
Cc1ccc2c(c1)CC(C)N2S(=O)(=O)c1nnc(NC(=O)C(C)C)s1 (centres undefined) -11.1%
CCCN(C(=O)c1sc2nc3n(c(=O)c2c1C)CCCC3)c1ccccc1C -15.7%
Cc1c(Cl)cccc1NC(=O)C(=O)NCC(c1cccnc1)N1CCN(c2ccccc2)CC1 (centres undefined) -16.6%
COc1ccc(NC(=O)Cn2cc(C(=O)C3CCCCC3)c3ccccc32)cc1 -16.7%
Cc1cc(=O)n(CC(=O)Nc2cccc([N+](=O)[O-])c2)c(-n2nc(C)cc2C)n1 -15.1%
CC(NC(=O)c1ccc2nc(Cc3ccccc3)oc2c1)c1ccccc1 (centres undefined) -8.69%
COc1ccc(-c2cc(C(F)(F)F)nc(SCCC(=O)Nc3cccc(O)c3)n2)cc1 -8.06%
COC(=O)c1c(NC(=O)c2cc3nc(-c4ccc(Br)cc4)cc(C(F)(F)F)n3n2)sc2c1CCCC2 -10.7%
CCc1ccc(Nc2cc(C(=O)NCCCN(C)c3ccccc3)c3ccccc3n2)cc1 -6.55%
COc1ccc(OC)c(NC(=O)N2CCC(N3CCN(Cc4ccc(F)cc4)C(=O)C3=O)CC2)c1 -9.6%
CCc1noc(-c2ccc(N(C)Cc3ccc(OC)cc3)c([N+](=O)[O-])c2)n1 -13.3%
CCOc1ccc(CCNC(=O)c2sc3ncccc3c2-n2c(C)ccc2C)cc1 -0.361%
Cc1ccc(-n2nc(C)c3c(C)c(CCC(=O)NCc4ccccc4Cl)c(C)nc32)cc1 -16.1%
CC(=O)NCCNC(=O)c1ccc2c(=O)n(CCc3ccccc3)c(=O)[nH]c2c1 -2.08%
COc1ccc(C2=C(C(C)=O)Sc3nnc(-c4ccccc4)n3N2C(C)=O)cc1 -8.76%
Cc1nc2nc(C)c(CCC(=O)NCc3cccc(Cl)c3)c(C)n2n1 -0.0245%
O=C(Cn1c(=O)n(Cc2ccco2)c(=O)c2sc3ccccc3c21)Nc1ccccc1C(F)(F)F -16.6%
CCOc1cc(C2NC(=O)c3c(sc4c3CCN(C)C4)N2)ccc1OC(=O)c1ccc(F)cc1 (centres undefined) -11.2%
CCCCNC(=O)NS(=O)(=O)c1ccc(N)cc1 -14.3%
COc1cc(NC(=O)c2cc3cc4cc(OC)ccc4nc3o2)cc(OC)c1 -1.89%
Fc1ccc(Cc2cn3cc(-c4ccc(F)cc4)nc3s2)cc1 -16.5%
COC(=O)c1ccccc1NC(=O)CCc1c(C)nc2cc(-c3ccc(Cl)cc3)nn2c1C -9.89%
CC(=O)c1cc(-c2ccc(F)cc2)n(CCC(=O)NC2CCCCC2)c1C -5.13%
COc1cc(C2CC(=O)N(CC(=O)Nc3ccccc3F)c3ccccc3S2)cc(OC)c1OC (centres undefined) -12.7%
CCC(C(=O)NCCc1ccc(SC)cc1)n1nc(C)c2c(C)n(-c3ccc(C)cc3)nc2c1=O (centres undefined) -8.72%
Cc1ccc(-n2nc(CO)c(C(=O)NC(C)c3ccccc3)n2)cc1C (centres undefined) 2.93%
COC(=O)c1sc2ccccc2c1S(=O)(=O)N1CCN(c2ccc(C(C)=O)cc2)CC1 -13.7%
Cc1ccc(CCNC(=O)c2ccc(CSc3nc4ccncc4n3Cc3ccc(F)cc3)cc2)cc1 -15%
O=S(=O)(Nc1cccc(-c2ccc(N3CCCCC3)nn2)c1)c1ccc(F)cc1F -6.99%
CSc1ccc(CCNC(=O)CCc2c(C)nc3c4cccnc4nn3c2C)cc1 -15.3%
CCSc1nc2sc3c(c2c(=O)n1-c1ccc(C)cc1)CCCC3 -3.7%
O=C(CC1N=C2c3ccccc3N=C(SCc3cccc(F)c3)N2C1=O)NC1CCCCC1 (centres undefined) -9.45%
COc1cccc(CNCc2c(C(=O)O)c(C)n(Cc3ccc(F)cc3Cl)c2C)c1OC -11.7%
O=C(Nc1ccc(F)c(F)c1)c1ccc(F)c(S(=O)(=O)N2CCC3(CC2)OCCO3)c1 -18.1%
Cc1ccc(Cl)cc1N1CCN(C(=O)c2cn(C)c3ccc(S(=O)(=O)N4CCCCC4)cc3c2=O)CC1 -17.1%
CC(C)CNc1cc(NC2CCCCC2)c2c3c(onc13)-c1ccccc1C2=O -12.8%
COc1ccc(NC(=O)CSc2c(C(C)C)cnc3c2c(=O)n(C)c(=O)n3C)c(OC)c1 -13.3%
COc1ccc2cc3c(N)nn(C(=O)c4ccc(F)cc4Cl)c3nc2c1 0.598%
CCn1c(=O)n(CC2CCC(C(=O)NC(C)C)CC2)c(=O)c2sccc21 (centres undefined) -9.56%
CCOC(=O)c1c(C)[nH]c(C)c1S(=O)(=O)N1CCC(C(=O)Nc2ccc(OC)c(OC)c2)CC1 -22.9%
